Our source for the self-cleavage values is the RNAGym collection of RNA variant scans (doi:10.1093/nar/gkz1192).

To fix the notation:
B1: CPEB3 Ribozyme (parent)
chain: UAACAGGGGGCCACAGCAGAAGCGUUCACGUCGCAGCCCCUGUCAGAUUCUGGUGAAUCUGCGAAUUCUGCUGUAUAUCUC

The source gives no read counts; variants with many changes may rest on few reads.

Variants of B1 are the subject of this data set. Nature of the data set: self-cleavage, relative activity (ratio to wild type); higher = more cleavage; in vitro, sequencing. Summed up:
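For each CPEB3 ribozyme variant, relative activity is its cleaved/total read fraction divided by the unmutated ribozyme's. Barcoded error-prone PCR libraries were transcribed by T7 RNA polymerase (5 hours, 37°C) and held in DNase I for 15 min before an EDTA stop, with cleavage occurring throughout. Template-switching reverse transcription and Illumina sequencing were used to read the RNAs. A 5-read minimum applied, and results are the mean of three batches.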
Consider UAACAGGGGGCCCCAGCAGAAGCACUCACGUCGCAGCCCCUGUCAGAUUCUGGCGAAUCUCCGAAUUCUGCUGUAUCUCUC [A13C G24A U25C U54C G61C A77C], for which the self-cleavage came out at 0.06.

Take UAACAGGGGGCCCCAGCAGAAGCGUACACGUCGCAGCCCCUGUCAGAUUCUGGUGAAUCUGCGAAUUCUGCUGUGUAUCUC [A13C U26A A75G]: the self-cleavage was 0.31.

With UAACAGGGGGCUACAGCAGAAGCGUUCACGUCGCAGCCCCUGUCAGACUCUGGUGAAUCUGCGAAUUCUGCAGUAUAUCUC [C12U U48C U72A], the self-cleavage was 0.56.

For the variant UAACAGGGGGCCCCUGCAGAAGCGUUCGCGUCGCAGCCCCUGUCAGAUUCUGGUGAAUCUGCGAAUUCCGCCGUAUAUCUC [A13C A15U A28G U69C U72C], the self-cleavage stood at 0.13.

In the case of UAACAGGGGGCCCCAGCAGAAGCGCUCGCGUCGCAGCCCCUGUCAGAUUCUGGCGAAUCUGCGAAUUCUGCUGUAUAUCUC [A13C U25C A28G U54C], the self-cleavage was found to be 0.

UAACAGGGGGCCCCAGCAGAAGCGUUCACGUCGCAGCCGCUGCCUGAUUCUGGUGAAUCUGCGAAUUCUGCUGUAUAUCUC [A13C C39G U43C A45U]: the self-cleavage came to 0.06.

As for UAACAGGGGGCCCCAGCAGAAGCGUUCACGUCGCAGCCCCUGUCAGAUUCUGGUGAAUCUGGGAAUACUGCUGUAUAUCUC [A13C C62G U67A], the self-cleavage turned out to be 0.12.

UAACAGGGGGCCCCAGCAGAAGCGUUCACGUCGCAGCCCCUGUCAGAUUCUGGUGAGUCUGCGGGUUCUGCUGUAUACCUC [A13C A57G A64G A65G U78C]: the self-cleavage turned out to be 0.15.

With UAACAGGGGGCUACAGCAGAAGCGUUCACGUCGCAGCCCCUGUCAGAUUCUGGUGAAUCCGCGUAUUCUGCUGUAAAUCUC [C12U U60C A64U U76A], the self-cleavage stood at 0.45.

As for UAACAGGGGGCCCCAGCAGAAGCGUUCACGUCGCAGCCCCUGUCAGAUUCUGGUGGAUCUGCGAAUACUGCUGUAUAUCUC [A13C A56G U67A], the self-cleavage came to 0.89.

Regarding UAACAGGGGGCCCCAGCAGAAGCGCUCACGUCGCAGCCCCUGUCAGAUUCUGGUGAAUCUGCGAAUCCUGCUGUAUAUCCC [A13C U25C U67C U80C], the self-cleavage amounted to 0.1.

For the variant UAACAGGGGGCCCCAGCAGAAGCGACCACGUCGCAGCCCCUGACAGAUUCUGGUGAAUCUGCGAAUUCUGCUGUAUAUCUC [A13C U25A U26C U43A], the self-cleavage was 0.3.

Regarding UAACAGGGGGCCCCAGCAGAAGCGUCCACGUCGCAGCACGUGUCAGAUUCUGGUGAAUCUGCGAAUUCUGCUGUAUAUCCC [A13C U26C C38A C40G U80C], the self-cleavage was 0.06.

On to UAACAGGGGGCCCCAGCAGAAGCGCUCACGUCGCAGCCACUGUCAGAUUCUGGUGAAUCUGCGAAUUCUGCUGUAUAUCUC [A13C U25C C39A], for which the self-cleavage worked out at 0.14.

For the variant UAACAGGGGGCCCCAGCAGAAGCGUUUACGUCGCACCCCUUGUCUGAUUCUGGUGAAUCUGCGAAUUCAGCUGUAUAUCUC [A13C C27U G36C C40U A45U U69A], the self-cleavage is 0.19.

With UAACAGGGGGCCCCAGCACAAGCGUUCACGUCGCAGCCACUGUCAGAUUCUGGUGAGUCUGCGGAUUCUGCUGUAUAUCUC [A13C G19C C39A A57G A64G], the self-cleavage was determined as 0.3.

Consider UAACAGGGGGCCCCAGCAGAAGCGUUCACGACGCAGCCCCUAUCAGAUUCUGGUGAGUCUGCGAAUUCAGCUGUAUAUCUC [A13C U31A G42A A57G U69A], for which the self-cleavage turned out to be 0.09.

In the case of UAACAGGGGGCCCCAGUAGAAGCGCUCACGUCGCAGCCCCUGUCAGAUUCUGGUGAAUUUGCGAAUUAUGCUGUAUAUCCC [A13C C17U U25C C59U C68A U80C], the self-cleavage was determined as 0.14.

Turning to UAACAGGGGGCUACAGCAGAAGCGUUCACGUCGCAGCCCCUGUCAGAUUCUGGUGAAUCUGCGAAUCCUGCCGCAUAUCCC [C12U U67C U72C U74C U80C], the self-cleavage turned out to be 0.65.

With UAACAGGGGGCCCCAGCAGAAGCGUUCACGUCGCAGCCCCUGUCAGAUUCUGAUGUAUCUGCGAAUUCUGCUGUAUAUCUC [A13C G53A A56U], the self-cleavage turned out to be 0.74.

In the case of UAACAGGGGGCCCCAGCAGAAGCGUUCACGCCGCAGCCCCUGUCAGAUUCUGGUGAAUCCGCGAAUUCUGCUGUAUAUCUC [A13C U31C U60C], the self-cleavage amounted to 0.17.

For UAACAGGGGGCCCCUGCAGAAGCGUUCACGUCGCGGCCCCUGUCAGAUUCUGGUGAAUCUGCGGAUUCUGCCGUAUUUCUC [A13C A15U A35G A64G U72C A77U], the self-cleavage turned out to be 1.26.

For UAACAGGGGGCCCCAGCAGAAGCGUUCACGUCGCAGCCCCAGUCAGAUUCUGAUGAAUCUGCGAAUUCUGCUGUAUAUCUC [A13C U41A G53A], the self-cleavage came out at 0.14.

For UAACAGGGGGCUACAGCAGAAGCGUUCACGUCGCAGCCCCUGUCAGAUUCUGGUGAAUCUGCGAACUCCGCUGUAUACCUC [C12U U66C U69C U78C], the self-cleavage came out at 0.28.

Take UAACAGGGGGCCCCAGCAGAAGCGUGCACGUCGCAGCCCCUGUCAGAUUCUGGUGAAUCUGCGAAUUCAGCUGAAUAUCUC [A13C U26G U69A U74A]: the self-cleavage stood at 0.06.

With UAACAGGGGGCCCCAGCAGAAGCGCUCACGUCGCGGCCCCUGUCGGAUUCUGGCGAAUCUGCGAAUCCUGCUGUAUAUCUC [A13C U25C A35G A45G U54C U67C], the self-cleavage amounted to 0.

Take UAACAGGGGGCCCCAGCGGAAGCGUUCACGUCGCAGCCCCUGUCAGAUUCUGGUGAAUCUGCGAAUACUGCCGUAUAUCUC [A13C A18G U67A U72C]: the self-cleavage worked out at 0.13.

Take UAACAGGGGGCCCCAGCAGAAGCGUUCACGUCGCUGCCCCUGUCAGAUUCUGGUGAAUCUGCGUGUUCUGCUGCAUAUCUC [A13C A35U A64U A65G U74C]: the self-cleavage came out at 0.05.

With UAACAGGGGGCUACAGCAGAAGCGUUCACGUCGCAGCCCCUGUCAGAUUCUGGUGAAUCUGCGAAUCCUGCUGUAUGUCUC [C12U U67C A77G], the self-cleavage turned out to be 0.45.

For the variant UAACAGGGGGCUACAGCAGAAGCGUUCACGUCGCAGCCCCUGUCAGAUUCUGGUGAAACUGCGAAUUCUGCUGCGUAUCUC [C12U U58A U74C A75G], the self-cleavage is 1.21.

In the case of UAACAGGGGGCUACAGCAGAAGCGUUCACGUCGCAGCCCCUGUCAGAUCCCGGUGAAUCCGCGUAUUCUGCCGUAUAUCUC [C12U U49C U51C U60C A64U U72C], the self-cleavage was 0.13.

For the variant UAACAGGGGGCUACAGCAGAAGCGUUCACGUCGCAGCCCCUGUCAGAUUCUGGUGAACCUGCGAAUUCUGCUUUAUAUCUC [C12U U58C G73U], the self-cleavage came to 1.38.

Consider UAACAGGGGGCCCCAGCAGAAGCGUUCACGUCGCAGCCCCAGUCAGAUUCUGGUGAAUCCGCGAAUUCUGCCGUAUAUCUC [A13C U41A U60C U72C], for which the self-cleavage is 0.12.

In the case of UAACAGGGGGCCCCAGCAGAAGCGUUCACGCCGCAGCCCCUGUCAGAUUCUGGUGAAUCUGCGAGUUCUGCUAUACAUCUC [A13C U31C A65G G73A U76C], the self-cleavage turned out to be 0.36.
